# Results from PubChem BioAssay AID686978 (National Center for Advancing Translational Sciences (NCATS), 2013).
# Values joined by “and” are separate entries in the source; they are usually repeats but may differ in a detail not shown here. Identical values can stand only once. The whole screen tested about 420,000 compounds, of which about 64,000 (15%) were called active. Inconclusive results, whose numbers are uncertain, are shown with a selection of clear calls. The call rests on the fitted dose curve; in most records, active means well fitted inhibition curve with a large enough effect; inconclusive means small, poorly fitted or top-dose-only effect; inactive means flat fitted curve, though single readings scatter. Potencies of inconclusive entries are left out as doubtful fits.
# Test: qHTS for Inhibitors of human tyrosyl-DNA phosphodiesterase 1 (TDP1): qHTS in cells in absence of CPT; further: nearly all actives have a fitted effect of over 55% in size
# Settings: DT40 Tdp1-/- hTDP1 cells, no CPT, ATP luminescence, 48 h; activity change, negative = growth inhibition: at 46.2 µM (top of the series) unless noted
# Outline: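 Growth of hTDP1-complemented DT40 Tdp1-knockout cells is measured by ATP luminescence after at least 48 hr compound exposure at 37 °C, with DMSO substituting for the 20 nM CPT used in the parallel screen.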
# On the % scale 0 is the no-effect control and ±100 the full control effect; potency means the concentration at half of the fitted maximal effect; tags describe the fitted curve by direction and shape.
Structure (SMILES),Potency,"activity change, negative = growth inhibition"
COc1ccccc1N1CCN(C(=O)CSc2nnc(NC(=O)C(C)C)s2)CC1,"inconclusive [inhibitor, single point]",
COc1ccccc1OCc1ccc(C(=O)Nc2cc(OC)c(OC)c(OC)c2)o1,"inconclusive [inhibitor, partial curve]",
c1coc(CNc2ncnc3[nH]ncc23)c1,"inconclusive [inhibitor, single point]",
COc1cccc(CNc2ccc(N3CCC(C)CC3)cc2)c1OC,active: 16.4 µM,
Cn1c(=O)n(CC(=O)NC2CCCCC2)c(=O)c2ccccc21,"inconclusive [inhibitor, single point]",
CC(=O)c1nn(-c2cccc(Br)c2)cc1C(=O)c1ccc2ccccc2c1,"inconclusive [inhibitor, single point]",
COc1cc(OC)cc(C(=O)Nc2ccc(NC(=O)c3ccco3)c(Cl)c2)c1,"inconclusive [inhibitor, single point]",
CC1=CC(=O)c2ccccc2C1=O,active: 20.6 µM and active: 4.61 µM,
COc1ccc(OCCOc2ccccc2[N+](=O)[O-])cc1,"inconclusive [inhibitor, partial curve]",
COc1ccc(C(C)(NC(C)=O)c2nc(-c3ccccc3OC)cs2)cc1 (stereo not given),active: 11.6 µM,
Cc1ccc(C(=O)Nc2nc3c(s2)CCCC3)o1,"inconclusive [inhibitor, single point]",
CSc1ccc(-c2nc3cnccn3c2Nc2ccc3c(c2)OCO3)cc1,"inconclusive [inhibitor, partial curve, poor fit]",
O=C(NCc1ccccc1)C1C(c2ccc3c(c2)OCO3)=Nc2ccccc2N1C(=O)c1ccccc1 (stereo not given),active: 14.6 µM,
Cc1nc2cc(NC(=O)N3c4ccccc4CC3C)ccc2o1 (stereo not given),"inconclusive [inhibitor, single point]",
CCC(C)c1ccc(NC(=S)NCc2cccnc2)cc1 (stereo not given),active: 7.31 µM,
O=C(NCC1CCCCC1)c1ccc(F)c(S(=O)(=O)N2CCOCC2)c1,"inconclusive [inhibitor, single point]",
COc1cccc(NC(=O)C(c2ccccc2)N2CCN(c3ccccn3)CC2)c1 (stereo not given),"inconclusive [inhibitor, single point]",
O=C(c1cccc(NS(=O)(=O)c2ccc(F)cc2)c1)N1CCN(c2ccccc2)CC1,"inconclusive [inhibitor, single point]",
COc1ccc(COc2cccnc2N)cc1,,inactive: -29.7%
Cc1ccnc(NC(=O)c2sc3cc(Cl)ccc3c2Cl)c1,,inactive: -19.9%
Cc1cccc(C)c1NC(=O)NC1(C(=O)NCc2ccncc2)CCCCC1,,inactive: 0.243%
CCn1c(C)nc2cc(-c3nc4n(n3)Cc3ccccc3-4)ccc21,active: 7.31 µM,
O=C(NC1CCCCCC1)c1ccc(CS(=O)c2ccc(Br)cc2)o1 (stereo not given),"inconclusive [inhibitor, single point]",
O=S(=O)(Nc1ccc(-c2ccc(N3CCCC3)nn2)cc1)c1ccc(OC(F)(F)F)cc1,"inconclusive [inhibitor, single point]",

Structure (SMILES),Potency,"activity change, negative = growth inhibition"
CCC(=O)N1c2ccc(S(=O)(=O)N3CCN(c4cc(C)ccc4C)CC3)cc2CC1C (stereo not given),"inconclusive [inhibitor, single point]",
COc1cccc(C2c3c(-c4ccccc4O)n[nH]c3C(=O)N2Cc2cccnc2)c1 (stereo not given),"inconclusive [inhibitor, single point]",
CC(=O)c1cccc(-c2cnc3c(NC=O)cc(-c4ccccc4Oc4ccccc4)cn23)c1,active: 14.6 µM,
O=C(NCCCO)/C(=C\C=C\c1ccccc1)NC(=O)c1ccccc1Cl,"inconclusive [inhibitor, single point]",
Cc1ccc(NC(=O)CSCc2cnn(-c3ccccc3)c2-n2cccc2)c(Cl)c1,"inconclusive [inhibitor, single point]",
CCc1ccccc1NC(=O)Cn1c(=O)n(-c2ccc(C)c(C)c2)c(=O)c2oc3ccccc3c21,"inconclusive [inhibitor, single point]",
O=C(N/N=C/c1c[nH]c2ccccc12)c1[nH]c2ccc(Br)cc2c1-c1ccccc1,active: 3.66 µM,
O=C(C1CCN(S(=O)(=O)c2cccc3nsnc23)CC1)N1CC=C(c2ccccc2)CC1,active: 16.4 µM,
Cc1[nH]n2c(=O)cc(-c3ccc([N+](=O)[O-])cc3)nc2c1-c1ccccc1,active: 7.31 µM,
Fc1ccc(CSc2ncnc3c2oc2ccccc23)cc1,"inconclusive [inhibitor, single point]",
CCCN(CCC)S(=O)(=O)c1cc(Br)cc2c1N(C(=O)CC)CC2,active: 10.3 µM,
Cc1ccc(CCNC(=O)c2cccc(Nc3nc4ccccc4nc3-n3nc(C)cc3C)c2)cc1,"inconclusive [inhibitor, single point]",
COc1ccc(CCNc2nc3ccccc3c3nc(-c4cccc(C)c4)nn23)cc1OC,active: 7.31 µM,
CCC(C(=O)Nc1c(C)cc(C)cc1C)N1CCCCCC1 (stereo not given),"inconclusive [inhibitor, partial curve]",
CCOC(=O)c1c(NC(=O)C(=O)N/N=C/c2ccccc2O)sc2c1CCCCC2,active: 3.26 µM,
CCOc1cc(CNc2cccc3[nH]c(C)nc23)ccc1OC,"inconclusive [inhibitor, single point]",
Cc1nn(CC(=O)N2CCN(c3cccc(Cl)c3)CC2)c(=O)c2c1sc1ccccc12,,inactive: -1.14%
Cc1cc(=O)oc2cc(OCC(O)Cn3ccnc3)ccc12 (stereo not given),"inconclusive [inhibitor, partial curve, poor fit]",
CCOC(=O)c1c(C)n(OCc2ccccc2)c2ccc3c(no[n+]3[O-])c12,"inconclusive [inhibitor, single point]",
N#C/C(=C\c1ccc(OCC(N)=O)cc1)c1ccccc1,,inactive: -24.7%
CCN(c1ccccc1)S(=O)(=O)c1ccc(C(=O)N(CCCN(C)C)c2nc3c(C)cccc3s2)cc1,"inconclusive [inhibitor, single point]",
CCOC(=O)c1ccc(NC(=O)CCc2c(C)nc3c(c(C)nn3C(C)(C)C)c2C)cc1,active: 18.4 µM,
CCOC(=O)c1c(CN(C)C)n(-c2ccccc2)c2cc(Br)c(O)cc12,"inconclusive [inhibitor, single point]",
CCOC(=O)c1sc2nc3n(c(=O)c2c1C)CCCCC3,,inconclusive: -30.2% [inhibitor]

Structure (SMILES),Potency,"activity change, negative = growth inhibition"
CC(C)C(=O)NC(=S)Nc1ccc(S(=O)(=O)NC(C)(C)C)cc1,"inconclusive [inhibitor, partial curve]",
CCOc1cc(C(=O)OCc2cc(=O)n3nc(C4CC4)sc3n2)cc(OCC)c1OCC,active: 20.6 µM,
COc1ccc(CC(=O)Nc2ccc3nc(SC)sc3c2)cc1OC,"inconclusive [inhibitor, partial curve]",
Cc1c(NC(=S)NC(=O)C(C)(C)C)cccc1[N+](=O)[O-],"inconclusive [inhibitor, single point]",
COc1cc(OC)c(NC(=O)NCc2cccn2Cc2ccccc2)cc1Cl,"inconclusive [inhibitor, single point]",
Cc1ccc(S(=O)(=O)N2c3ccccc3OCC2c2ccccc2)cc1 (stereo not given),active: 16.4 µM,
COc1ccc(CN2CC[C@@H](N3CCOCC3)[C@H](O)C2)cc1F,,inactive: -4.21%
CC(C)CC(NC(=O)C1CCCCC1)C(=O)N1CCN(c2ccccn2)CC1 (stereo not given),,inactive: -22.5%
C(=C\c1ccnc2ccccc12)/c1ccc2c(c1)OCO2,"inconclusive [inhibitor, single point]",
CCN(CC)Cc1c(O)ccc2c1O/C(=C\C=C\c1ccccc1)C2=O,active: 18.4 µM,
COc1ccc(C2CC(c3ccc(OC)cc3OC(C)=O)=NN2C(=O)c2ccccc2)cc1 (stereo not given),"inconclusive [inhibitor, single point]",
CCC1([N+](=O)[O-])COC(c2ccc(C(C)C)cc2)OC1 (stereo not given),"inconclusive [inhibitor, single point]",
CC(=O)OCC(=O)C1CCC2C3CCC4=CC(=O)C=CC4(C)C3CCC12C (stereo not given),"inconclusive [inhibitor, partial curve]",
O=C1COC(c2ccccc2)C2CCCCN12 (stereo not given),"inconclusive [inhibitor, single point]",
CCN(CC)S(=O)(=O)c1cccc(-c2n[nH]c(=S)n2CC(C)C)c1,"inconclusive [inhibitor, single point]",
CC1CCN(C(=O)c2ncn(Cc3ccccc3)c2C(=O)N2CCC(C)CC2)CC1,"inconclusive [inhibitor, single point]",
CC(C)(C)c1ccc(OCCCC(=O)Nc2nnc(C3CC3)s2)cc1,active: 10.3 µM,
O=C(O)CCC(=O)c1cccc2ccccc12,,inactive: -14.4%
Cc1nn(C)c(C)c1S(=O)(=O)N1CCCC(C(=O)NC2CCCCCC2)C1 (stereo not given),"inconclusive [inhibitor, single point]",
O=C(Nc1nc2ccccc2[nH]1)c1cccc(Br)c1,"inconclusive [inhibitor, single point]",
Cc1[nH]n(-c2ccccc2)c(=O)c1/C=N/NC(=O)COc1ccccc1[N+](=O)[O-],active: 4.61 µM,
COc1cc(NC(=O)c2ccc(F)cc2)c(OC)cc1NC(=O)CN1CCOCC1,"inconclusive [inhibitor, single point]",
